Measured values published in PubChem BioAssay AID1347073 (National Center for Advancing Translational Sciences (NCATS), 2019).
Among all 45,000 compounds or so, about 200 (0.44%) were called active. Inconclusive results (about 7%) are left out. The call rests on the fitted dose curve; in most records, active means well fitted activation curve with a large enough effect; inconclusive means small, poorly fitted or top-dose-only effect; inactive means no such curve, though single readings can be large or run the other way. The list shows a part of the results.

Assay: qHTS of TDP-43 Inhibitors: NCGC Sytravon Library Screen; further: nearly all actives have a fitted effect of over 55% in size; on growth rescue (activation): 0% is about no effect
Conditions: yeast TDP-43 toxicity rescue, BacTiter-Glo growth, 24 h; series mostly up to 46.1 µM; growth rescue (activation): at the top concentration
How it was run: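 TDP-43-expressing yeast, pregrown in raffinose, seeded at OD600 0.02 in galactose medium with compound for 24 hr at 30 deg C. Growth read by BacTiter-Glo luminescence, so rescue of toxicity appears as activation.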
Potency means the concentration at half of the fitted maximal effect.

SMILES	growth rescue (activation)	Potency
CCC(C)C(NC(=O)C1CCC(=O)N1C(=O)OCc1ccccc1)C(=O)NC(Cc1ccccc1)C(N)=O (stereo not drawn)	inactive: -15%	–
CCOC(=O)CCNC(=O)Nc1cc2nc(C)n(Cc3cccc(Cl)c3)c2nc1C	inactive: -6.29%	–
COc1cccc(NC(=O)CC2NCCNC2=O)c1 (stereo not drawn)	inactive: -4.45%	–
CC(O)C(NS(=O)(=O)c1ccc(Cl)cc1)C(=O)OCc1cc([N+](=O)[O-])cc2c1OCOC2 (stereo not drawn)	inactive: -19.1%	–
COc1ccccc1CNC(=O)Cc1c[nH]c2ccccc12	inactive: 2.49%	–
NC(=O)c1nsc(C(=O)N(c2ccc(F)cc2)C(C(=O)NCC2CCCO2)c2ccc3ncccc3c2)c1N (stereo not drawn)	inactive: 7.66%	–
O=C(Cc1cccc2ccccc12)NN1C(=O)/C(=C\c2cccnc2)SC1=S	inactive: 20.5%	–
COc1ccccc1NC(=O)Cc1nnc(SCC(=O)NC2CCCC2)n1C	inactive: -1.17%	–
COc1ccccc1CCC(=O)NNC(=O)c1ccccc1	inactive: 2.78%	–
Nn1c(SCC(=O)NC2CCS(=O)(=O)C2)nnc1-c1ccco1 (stereo not drawn)	inactive: 8.16%	–
Nc1nc2c(nc(N3CCCCC3)n2[C@@H]2O[C@H](CO)[C@@H](O)[C@H]2O)c(=O)[nH]1	inactive: 0.222%	–
O=C(COC(=O)/C=C/c1ccccc1[N+](=O)[O-])NC(=O)NC1CCCC1	inactive: 37.8%	–
Cc1nc(NCc2ccccn2)c2c3c(sc2n1)CCCC3	inactive: 18%	–
CCn1nc(NC(=O)C(C)C)c2cc3ccc(C)cc3nc21	inactive: 9.62%	–
O=C(Nc1ccc(S(=O)(=O)NCc2ccco2)cc1)c1cccc(F)c1	inactive: 7%	–
S=C(NC1CCCC1)NN1CCOCC1	inactive: -3.02%	–
O=C(Nc1ccc(F)c(Cl)c1)c1cccnc1	inactive: 5.26%	–
Cc1ccc(NC(=O)CN(C)C(=O)CCOc2cccc(C)c2)cc1	inactive: 9.5%	–
COc1ccc2cc(C3CC(c4ccco4)=NN3S(C)(=O)=O)c(Cl)nc2c1 (stereo not drawn)	inactive: 5.84%	–
Cc1ccc(NC(=O)c2cc(-c3ccccc3O)n[nH]2)cc1Cl	inactive: 14.6%	–
COc1cccc(/C=C2/SC(=S)N(CC(=O)NNC(=O)c3ccccc3O)C2=O)c1	inactive: 15.3%	–
CCCCNC(=O)C1(C)CCN1Cc1cccc2c(OC)cc(C(=O)OCC)cc12 (stereo not drawn)	inactive: 21.4%	–
CCOC(=O)c1c(C)[nH]c(C(=O)COC(=O)CCS(=O)(=O)c2ccc(C)cc2)c1C	inactive: 6.75%	–
Cc1ccc(C(=O)Oc2cccc(-n3cnnn3)c2)cc1	inactive: 23.3%	–
O=[N+]([O-])c1ccc2nc(-c3ccccc3)cc(-c3ccccc3)c2c1	inactive: 16.2%	–
O=C(NCc1ccccc1F)c1ccncc1	inactive: -6.71%	–

SMILES	growth rescue (activation)	Potency
O=C(N/N=C/c1ccc2ncccc2c1)c1cccc([N+](=O)[O-])c1	inactive: 18.5%	–
Cc1ccc(C)c(NCC(=O)NNC(=S)Nc2ccccc2)c1	inactive: 19.8%	–
Cc1cccc(C(P(=O)(c2ccccc2)c2ccccc2)P(=O)(c2ccccc2)c2ccccc2)n1	inactive: -4.42%	–
Cc1ccc(-n2ncc3c(SCc4cccc(C)c4)ncnc32)cc1	inactive: 17.2%	–
C=C(C)CN=C1NN=C(c2cc(C)n(-c3ccc(C)cc3)c2C)CS1	inactive: 25%	–
O=C(/C=C/c1ccc(S(=O)(=O)N2CCOCC2)cc1)NC(CO)C(O)c1ccc([N+](=O)[O-])cc1 (stereo not drawn)	inactive: 17.9%	–
O=C(O)CCCNC(=O)/C(=C\c1ccccc1F)NC(=O)c1ccccc1	inactive: -11.5%	–
COc1cc(S(=O)(=O)n2cnc(C)c2)ccc1Br	inactive: 16.6%	–
CC(C)N(C(=O)CSc1nnnn1-c1ccc2c(c1)OCO2)C(C)C	inactive: 1.12%	–
COC(=O)c1[nH]c2ccc(Cl)cc2c1NC(=O)CN1CCc2cc(OC)c(OC)cc2C1	inactive: 11.2%	–
CC(Sc1nncs1)C(=O)NCC(=O)Nc1ccc(F)c(F)c1F (stereo not drawn)	inactive: 14.7%	–
CCc1nnc(NC(=O)C2CCCN2C(=O)Nc2ccc(Cl)cc2)s1 (stereo not drawn)	inactive: 8.23%	–
COc1ccc(-n2c(COc3cccc(C)c3)nnc2SCC(=O)O)cc1	inactive: 22.8%	–
CN(C)Cc1csc(NC(=O)Nc2ccccc2C(C)(C)C)n1	inactive: 2.4%	–
CN(C)C(=O)c1cccc(-c2cnc3sc(NCc4ccc5c(c4)OCO5)nn23)c1	inactive: 6.22%	–
O=C(NCc1ccc(F)cc1)c1cc(C2CCCN(C(=O)c3ccc4ccccc4c3)C2)on1 (stereo not drawn)	inactive: 10.8%	–
CCOc1ccc2nc(NCCNC(=S)NCCCN(C)C)c(C#N)cc2c1	inactive: 3.24%	–
CCOP(=O)(OCC)C(NC(=O)Nc1ccc(Cl)cc1)c1ccccc1 (stereo not drawn)	inactive: 5.54%	–
COc1ccc(C(=O)NCC(=O)OCC(=O)NC2CCCC2)cc1	inactive: 12.8%	–
O=C(COC(=O)[C@H](Cc1ccccc1)NC(=O)c1cccs1)NC1CCCCC1	inactive: -4.32%	–
COc1ccc(CCC(=O)NNC(=O)c2ccc(OC)cc2)cc1	inactive: 11.1%	–
CC(=O)Nc1ccc(NS(=O)(=O)c2ccc(OC(C)C(=O)N3CCOCC3)cc2)cc1 (stereo not drawn)	inactive: 11.3%	–
CCN(CC)CCN(Cc1cc2cc3c(cc2[nH]c1=O)OCCO3)C(=S)NCC1CCCO1 (stereo not drawn)	inactive: 2.57%	–
O=C(O/N=C(\c1ccccc1)c1ccccn1)c1cccc2ccccc12	inactive: 22.1%	–
CC(=O)Nc1cccc(-c2ccnc3c2CC(C(=O)Nc2cccc(N(C)C)c2)O3)c1 (stereo not drawn)	inactive: -2.52%	–
Cc1ccc(N(C(=O)CCC(=O)Nc2nccs2)C(C(=O)NC(C)(C)C)c2ccc(O)cc2)cc1 (stereo not drawn)	inactive: 4.42%	–

SMILES	growth rescue (activation)	Potency
O=C(Nc1cccc(S(=O)(=O)N2CCCCCC2)c1)c1ccc(Cl)nc1	inactive: -12.1%	–
NC(=O)c1ccc(NC(=O)c2ccccc2S(=O)(=O)c2ccccc2[N+](=O)[O-])cc1	inactive: 5.02%	–
O=C(O)c1c2c(nc3ccc(S(=O)(=O)N4CCC(C(=O)NCc5ccc(Cl)cc5)CC4)cc13)CCCC2	inactive: -4.18%	–
O=C(COC(=O)COc1ccccc1)Nc1ccc(Br)cc1F	inactive: -15.1%	–
CCCCCOc1ccc(NC(=O)Cn2c(-c3cncs3)nc3ccccc32)cc1	inactive: 18.1%	–
CC1CN(C(=O)N2c3ccccc3Sc3ccccc32)CC(C)O1 (stereo not drawn)	–	active: 12.6 µM
Cc1cc(C)n(CCC(=O)N/N=C/c2ccc(Br)c([N+](=O)[O-])c2)n1	inactive: 21.4%	–
COC(=O)[C@H](Cc1ccccc1)NC(=O)Nc1ccc(OC)cc1	inactive: -3.46%	–
CCC(/C=C1\Oc2ccc(OC)cc2N1C)=C\c1sc2ccccc2[n+]1CCCS(=O)(=O)[O-]	inactive: -7.22%	–
CC(C)CNC(=O)NC(=O)COC(=O)C1CSC2(c3ccc(F)cc3)CCC(=O)N12 (stereo not drawn)	inactive: -9.24%	–
CN(c1cccc(NC(=O)CN(c2cccc(Cl)c2)S(=O)(=O)c2ccccc2)c1)S(C)(=O)=O	inactive: 20.7%	–
Cc1cccc(N2C(=O)CC(N3CCN(Cc4ccc5c(c4)OCO5)CC3)C2=O)c1 (stereo not drawn)	inactive: -4.29%	–
Cc1sc(-c2c(C#N)c(N)nc3c2CCCCCC3)cc1[N+](=O)[O-]	inactive: 23.1%	–
CCc1ccc(NC(=O)COC(=O)/C(=C/c2ccccc2OC)c2ccccc2)cc1	inactive: 23.2%	–
CCSc1nnc(NC(=O)C2C3CCC(C3)C2C(=O)O)s1 (stereo not drawn)	inactive: 3.13%	–
O=c1c2ccccc2n2cnnc2n1-c1ccccc1	inactive: 3.22%	–
CC(=O)N(c1ccc2oc(=O)sc2c1)S(=O)(=O)c1ccc(C)cc1	inactive: 14.2%	–
S=C(NCc1ccccc1)N1CCN(c2ccccc2)CC1	inactive: 15.5%	–
COc1ccc(OC)c(C(=O)C2COC(=O)C2)c1 (stereo not drawn)	inactive: 30.6%	–
CCC(CC)C(=O)Nc1cc(C(=O)OC)ccc1C(=O)OC	inactive: 5.02%	–
O=C(COC(=O)c1ccc(NS(=O)(=O)c2cccs2)cc1O)Nc1ccc(F)cc1	inactive: 30.3%	–
OC(c1ccccc1)c1ncc(-c2cccc(OCc3ccccc3)c2)[nH]1 (stereo not drawn)	inactive: 16%	–
CN(C(=O)CN1CCN(c2cc(-c3ccc(OCc4ccccc4)cc3)ncn2)CC1)c1ccccc1	inactive: 6.8%	–
COc1cccc(-c2nc(N3CCN(C)CC3)c3ccccc3n2)c1O	inactive: -2.42%	–
COc1ccc(C(=O)CCC(=O)Nc2cccnc2)cc1OC	inactive: 14.8%	–
Cc1ccccc1C(C(=O)NC1CCCCC1)N(C(=O)CNC(=O)c1ccco1)c1cccnc1 (stereo not drawn)	inactive: -10.1%	–

SMILES	growth rescue (activation)	Potency
Cc1c(C(=O)O)sc2nc(/C=C/c3ccccc3OC(F)F)[nH]c(=O)c12	inactive: 4.22%	–
CCOc1ccc(CN(CC)C(=O)Cc2c[nH]c3ccccc23)cc1OC	inactive: -4.99%	–
COCCN(Cc1ccc(OC)cc1)c1c(C)nc2ccc(C(=O)NCCc3c[nH]c4ccccc34)cn12	inactive: 13.4%	–
Cc1nn(C)cc1CN(C)C(=O)c1nn2c(c1Br)NC(c1cccs1)CC2C(F)(F)F (stereo not drawn)	inactive: 7.88%	–
O=C(Cc1ccc(Cl)cc1)NCC(=O)N1CCN(c2ccccc2)CC1	inactive: 12.1%	–
Cc1nn(CC(=O)Nc2ccc(N3CCOCC3)cc2)c(C)c1Cl	inactive: 13.8%	–
CCn1c(C)nc2cc(C(=O)N/N=C(\C)c3ccc(N4CCOCC4)cc3)ccc21	inactive: 15.8%	–
CC1=NNC(=O)C1CCC(=O)N/N=C/C=C/c1ccccc1 (stereo not drawn)	inactive: 1.91%	–
Cc1ccc(S(=O)(=O)N(C)Cc2ccccc2)cc1C(=O)N1CCCCC1	inactive: -25.5%	–
Cc1ccc(S(=O)(=O)Nc2c(C)nc3nc(C)[nH]n3c2=O)c(C)c1	inactive: -0.82%	–
O=C(C1CC(=O)N(c2ccccc2)C1)N1CCN(c2ccc(F)cc2)CC1 (stereo not drawn)	inactive: 4.62%	–
Oc1ccc(NCc2ccccc2OCc2ccccc2Cl)cc1	inactive: 9.06%	–
Cc1ccc(SCCC(=O)NCCSCc2ccco2)cc1	inactive: 28.9%	–
CCOc1ccc(S(=O)(=O)N(C)CC(=O)NC2CCCC2)cc1	inactive: 13.8%	–
COc1cccc(NC(=O)C2Cc3ccccc3CN2C(=O)c2ccco2)c1 (stereo not drawn)	inactive: -3.63%	–
O=C(CN1CCN(Cc2ccccc2)CC1)Nc1cccc(Br)c1	inactive: 19.2%	–
CN(C)S(=O)(=O)c1ccc(NC(=O)Cc2ccc(S(=O)(=O)N3CCOCC3)s2)cc1	inactive: -8.96%	–
CCOc1ccc(/C=N/Nc2cc(C)nc(N3CCOCC3)n2)cc1	inactive: 13.6%	–
CC(=O)c1csc(-c2ccccc2)n1	inactive: 7.21%	–
Cc1ccc(CNC(=O)CCC2CCCN(C(=O)c3ccc4c(c3)OCO4)C2)o1 (stereo not drawn)	inactive: 2.39%	–
CCCc1cc(CN(C)C(=O)CC2C(=O)NCCN2Cc2ccccc2C)[nH]n1 (stereo not drawn)	inactive: 13.6%	–
Cc1cc2oc(C(=O)NCc3ccccc3)cc(=O)c2cc1C	inactive: -19.7%	–
COc1ccc(C(=O)Nc2nc(-c3ccc([N+](=O)[O-])cc3)c(-c3ccccc3)s2)cc1	inactive: -1.13%	–
Cc1ccsc1/C=C1\Oc2cc(OCC(=O)c3ccccc3)ccc2C1=O	inactive: -0.248%	–
CC(C)(C)c1ccc(C(=O)NCC(=O)OCc2ccc([N+](=O)[O-])cc2)cc1	inactive: 9.97%	–
